In all, about 81,000 sequences were measured (“one-hybrid fitness for binding NBS DNA”: median about -0.1, highest 2% from about 0.36 on). This is one part of the list.

This note sets out measurements from a collection of fitness landscapes (doi:10.1016/j.celrep.2020.107928).

B1: Caulobacter ParB omega fusion; a variant is named by its letters at X, in order, B8GW30 (parent)
chain: MESVVVGEPGMSEGRRGLGRGLSALLGEVDAAPAQAPGEQLGGSREAPIEILQRNPDQPRRTFREEDLEDLSNSIREKGVLQPILVRPSPDTAGEYQIVAGERAWRAAQRAGLKTVPIMVRELDDLAVLEIGIIENVQRADLNVLEEALSYKVLMEKFERTQENIAQTIGKSXSHVANXMRLLXLPDEVQSYLVSGELTAXHARAIAAAADPVALAKQIIEGGLSVRETEALARKAPNLSAGKSKGGRPPRVKDTDTQALESDLSSVLGLDVSIDHRGSTGTLTITYATLEQLDDLCNRLTRGI

Variants of B1 are the subject of the test. Nature of the test: one-hybrid fitness for binding NBS DNA (the Noc-binding site; scaled: cognate 1, non-cognate 0); higher = stronger binding. To be noted: with NBS DNA site. The essentials:
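Values were rescaled so that cognate is 1 and non-cognate is 0. Each is a fitness, the log change in a variant's read ratio to wild type from Illumina reads of plasmids before and after selection, with three replicate libraries pooled and variants under 10 reads dropped. Selection of the Caulobacter ParB libraries, four specificity codons randomised, used E. coli USO with a HIS3 reporter, site 19 bp from the promoter, on M9-minus-histidine with 0.1 mM IPTG and 5 mM 3-AT for 48 hours at 37°C.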
As for RGHD, the “one-hybrid fitness for binding NBS DNA” value is at most 0.2. On to QAPD, for which the “one-hybrid fitness for binding NBS DNA” value is at most 0.2. To RMRN belongs 0.25; to CMAS, at most 0.2.

In the case of GGPS, the “one-hybrid fitness for binding NBS DNA” value was at most 0.2. Next, HTAM: at most 0.2. To CMTL belongs at most 0.2; to RSRR, 0.664. To RLGE belongs at most 0.2. As to HLMC, the “one-hybrid fitness for binding NBS DNA” value was at most 0.2. To LFLF belongs at most 0.2; to SVPR, at most 0.2; to RYGY, at most 0.2.

Turning to RCHV, the “one-hybrid fitness for binding NBS DNA” value is at most 0.2.

As to VNAY, the “one-hybrid fitness for binding NBS DNA” value is at most 0.2. Next, PGVG: at most 0.2; HTEV: at most 0.2.

Regarding QVRK, the “one-hybrid fitness for binding NBS DNA” value stood at 0.212. Next, MKSY: at most 0.2; APNA: at most 0.2; ISTD: at most 0.2.

For the variant VVIG, the “one-hybrid fitness for binding NBS DNA” value is at most 0.2. To TWPT belongs at most 0.2; to MQLE, at most 0.2. For VRFI, the “one-hybrid fitness for binding NBS DNA” value was at most 0.2. To LILF belongs at most 0.2; to HHVG, at most 0.2. To TAEV belongs at most 0.2. For the variant IREN, the “one-hybrid fitness for binding NBS DNA” value is at most 0.2. For the variant RICM, the “one-hybrid fitness for binding NBS DNA” value is at most 0.2.

As to NQTE, the “one-hybrid fitness for binding NBS DNA” value was at most 0.2. To ERYR belongs at most 0.2.

Regarding TCHE, the “one-hybrid fitness for binding NBS DNA” value was at most 0.2. To IVGR belongs at most 0.2; to SYNQ, at most 0.2; to MVEF, at most 0.2. Regarding AMWM, the “one-hybrid fitness for binding NBS DNA” value was at most 0.2.

With VDEY, the “one-hybrid fitness for binding NBS DNA” value was at most 0.2. To QRKR belongs 1.08.

Take RSNA: the “one-hybrid fitness for binding NBS DNA” value is 0.21. Consider KERF, for which the “one-hybrid fitness for binding NBS DNA” value was at most 0.2. On to AKTQ, for which the “one-hybrid fitness for binding NBS DNA” value is at most 0.2. Next, LNEG: at most 0.2; DGCR: at most 0.2; KQYT: at most 0.2. Take TSKM: the “one-hybrid fitness for binding NBS DNA” value was at most 0.2. In the case of TPYG, the “one-hybrid fitness for binding NBS DNA” value is at most 0.2.

LREP: the “one-hybrid fitness for binding NBS DNA” value is at most 0.2.

DFFL: the “one-hybrid fitness for binding NBS DNA” value is at most 0.2.

For HWTQ, the “one-hybrid fitness for binding NBS DNA” value was at most 0.2. To CKRH belongs at most 0.2; to TLLL, at most 0.2; to YYET, at most 0.2. For the variant EPVY, the “one-hybrid fitness for binding NBS DNA” value is at most 0.2.

Take HESC: the “one-hybrid fitness for binding NBS DNA” value was at most 0.2. Consider QWVS, for which the “one-hybrid fitness for binding NBS DNA” value was at most 0.2. Regarding TVGA, the “one-hybrid fitness for binding NBS DNA” value was at most 0.2. To MYKS belongs at most 0.2; to LEET, at most 0.2; to FKHA, at most 0.2. To YHRT belongs at most 0.2. Regarding QGKH, the “one-hybrid fitness for binding NBS DNA” value is at most 0.2. Take IIYW: the “one-hybrid fitness for binding NBS DNA” value was at most 0.2. Next, SITT: at most 0.2; LTSE: at most 0.2.

HVGY: the “one-hybrid fitness for binding NBS DNA” value was at most 0.2. In the case of ISSE, the “one-hybrid fitness for binding NBS DNA” value was at most 0.2. To RSKI belongs at most 0.2; to CHCS, at most 0.2.

Consider SAAQ, for which the “one-hybrid fitness for binding NBS DNA” value is at most 0.2.

Take CRMW: the “one-hybrid fitness for binding NBS DNA” value is at most 0.2.

For the variant AIIG, the “one-hybrid fitness for binding NBS DNA” value is at most 0.2. Consider SGMY, for which the “one-hybrid fitness for binding NBS DNA” value is at most 0.2. As to SLEW, the “one-hybrid fitness for binding NBS DNA” value was at most 0.2. Take PLNV: the “one-hybrid fitness for binding NBS DNA” value is at most 0.2. Next, TTWC: at most 0.2. For the variant QITP, the “one-hybrid fitness for binding NBS DNA” value was at most 0.2. Regarding GSNG, the “one-hybrid fitness for binding NBS DNA” value is at most 0.2. With FVHR, the “one-hybrid fitness for binding NBS DNA” value is at most 0.2. Next, MATG: at most 0.2. As for AHER, the “one-hybrid fitness for binding NBS DNA” value is at most 0.2. To SRYS belongs at most 0.2; to CTTH, at most 0.2.

Regarding IVAG, the “one-hybrid fitness for binding NBS DNA” value was at most 0.2.

Take QCND: the “one-hybrid fitness for binding NBS DNA” value is at most 0.2.

As to DDPK, the “one-hybrid fitness for binding NBS DNA” value is at most 0.2. Consider CGST, for which the “one-hybrid fitness for binding NBS DNA” value was at most 0.2. With PGEH, the “one-hybrid fitness for binding NBS DNA” value is at most 0.2. To NEKT belongs at most 0.2; to LTDK, at most 0.2.

Regarding VIQR, the “one-hybrid fitness for binding NBS DNA” value was at most 0.2. Next, TWFS: at most 0.2; TLNG: at most 0.2; EVRW: at most 0.2. Next, RLVT: 0.236; SECG: at most 0.2; AQER: at most 0.2. Next, ISHF: at most 0.2; RKDS: 0.412. As to AQDF, the “one-hybrid fitness for binding NBS DNA” value is at most 0.2. Next, CYQS: at most 0.2; DGTV: at most 0.2.

On to PCQP, for which the “one-hybrid fitness for binding NBS DNA” value was at most 0.2.

Take GSMS: the “one-hybrid fitness for binding NBS DNA” value is at most 0.2. Turning to TDKI, the “one-hybrid fitness for binding NBS DNA” value is at most 0.2.

Consider QRPC, for which the “one-hybrid fitness for binding NBS DNA” value was at most 0.2. Next, TKIR: at most 0.2; AGLE: at most 0.2. Next, PQQG: at most 0.2.

For MIDT, the “one-hybrid fitness for binding NBS DNA” value was at most 0.2. Turning to ASYY, the “one-hybrid fitness for binding NBS DNA” value is at most 0.2.

For the variant MHIG, the “one-hybrid fitness for binding NBS DNA” value was at most 0.2. Next, GRVT: at most 0.2. On to ARYA, for which the “one-hybrid fitness for binding NBS DNA” value was at most 0.2.

Take CRMG: the “one-hybrid fitness for binding NBS DNA” value was at most 0.2. For the variant YTCL, the “one-hybrid fitness for binding NBS DNA” value is at most 0.2. To EERS belongs at most 0.2; to LDTQ, at most 0.2; to DGND, at most 0.2.

Take SLFT: the “one-hybrid fitness for binding NBS DNA” value was at most 0.2. As to CNMR, the “one-hybrid fitness for binding NBS DNA” value was at most 0.2. Consider KSEW, for which the “one-hybrid fitness for binding NBS DNA” value is at most 0.2. To HRTT belongs at most 0.2. Take LVPL: the “one-hybrid fitness for binding NBS DNA” value was at most 0.2. Regarding AGQR, the “one-hybrid fitness for binding NBS DNA” value is at most 0.2.

On to TVSP, for which the “one-hybrid fitness for binding NBS DNA” value was at most 0.2. To TDGC belongs at most 0.2; to QQEE, at most 0.2.

Regarding NMWT, the “one-hybrid fitness for binding NBS DNA” value was at most 0.2. Next, AICG: at most 0.2; FLHK: at most 0.2; AWID: at most 0.2. Turning to RHYG, the “one-hybrid fitness for binding NBS DNA” value is at most 0.2. Consider WCKR, for which the “one-hybrid fitness for binding NBS DNA” value was at most 0.2. Next, DTVH: at most 0.2; PETL: at most 0.2; SSNT: at most 0.2. Next, LMQD: at most 0.2; VALN: at most 0.2.

Consider MPTV, for which the “one-hybrid fitness for binding NBS DNA” value was at most 0.2. To ARSC belongs at most 0.2.

In the case of PFCR, the “one-hybrid fitness for binding NBS DNA” value is at most 0.2. Next, VHIC: at most 0.2; GRCR: at most 0.2. Turning to WYIC, the “one-hybrid fitness for binding NBS DNA” value is at most 0.2. Next, TSYK: at most 0.2; QPRD: at most 0.2; TSNN: at most 0.2. To NMFL belongs at most 0.2; to LVRS, at most 0.2. To EITL belongs at most 0.2; to RLAL, at most 0.2. As to DNQP, the “one-hybrid fitness for binding NBS DNA” value was at most 0.2.
